# According to PMC4336329 (PLoS ONE, 2015):
# Among all 310,000 compounds or so, about 2,200 (0.71%) showed an effect of 50% or more. Effects have a minus sign here. This is one part of the list.
# Molecular target: human ether-à-go-go-related gene (hERG) potassium channel (human, UniProt Q12809)
# Assay: primary screen, population patch clamp on CHO cells stably expressing hERG
# human ether-à-go-go-related gene (hERG) potassium channel, sequence (Q12809 whole entry, looked up): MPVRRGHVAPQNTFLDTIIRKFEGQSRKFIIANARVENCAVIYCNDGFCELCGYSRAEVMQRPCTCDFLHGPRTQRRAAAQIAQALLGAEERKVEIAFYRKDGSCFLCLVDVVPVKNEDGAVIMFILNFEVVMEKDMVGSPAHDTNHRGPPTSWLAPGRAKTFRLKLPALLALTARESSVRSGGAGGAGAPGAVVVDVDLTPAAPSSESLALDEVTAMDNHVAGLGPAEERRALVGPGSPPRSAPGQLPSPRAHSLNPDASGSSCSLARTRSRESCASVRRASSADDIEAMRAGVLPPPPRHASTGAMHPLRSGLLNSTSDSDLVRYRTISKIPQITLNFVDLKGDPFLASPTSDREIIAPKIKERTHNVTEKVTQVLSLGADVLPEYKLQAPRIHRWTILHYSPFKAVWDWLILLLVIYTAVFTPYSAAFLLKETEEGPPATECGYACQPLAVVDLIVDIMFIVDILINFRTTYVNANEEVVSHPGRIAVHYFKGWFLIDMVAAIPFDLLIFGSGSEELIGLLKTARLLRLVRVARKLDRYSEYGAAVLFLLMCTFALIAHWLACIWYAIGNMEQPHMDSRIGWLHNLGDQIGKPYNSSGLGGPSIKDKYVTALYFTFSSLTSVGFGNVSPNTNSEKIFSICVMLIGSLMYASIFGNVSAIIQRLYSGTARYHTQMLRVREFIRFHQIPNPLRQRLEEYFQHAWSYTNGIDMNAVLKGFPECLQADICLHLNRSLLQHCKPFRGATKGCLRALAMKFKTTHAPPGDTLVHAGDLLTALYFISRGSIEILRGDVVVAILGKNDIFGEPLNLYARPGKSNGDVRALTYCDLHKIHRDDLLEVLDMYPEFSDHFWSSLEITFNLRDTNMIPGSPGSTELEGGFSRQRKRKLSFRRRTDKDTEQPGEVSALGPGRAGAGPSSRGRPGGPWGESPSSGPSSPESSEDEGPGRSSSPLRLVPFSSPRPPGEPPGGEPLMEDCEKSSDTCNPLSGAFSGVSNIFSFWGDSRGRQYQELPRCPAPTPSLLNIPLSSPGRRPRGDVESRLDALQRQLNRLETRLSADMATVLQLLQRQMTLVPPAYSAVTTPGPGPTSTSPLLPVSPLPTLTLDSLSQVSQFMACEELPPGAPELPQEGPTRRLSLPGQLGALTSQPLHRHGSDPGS
row,Structure (SMILES),"hERG current change (%, negative = inhibition) at 1uM [%]"
1,Cc1ccc(CCNC(=O)C2CCC(=O)N2Cc2cccnc2)cc1 (centres unmarked),15.9
2,Cn1c(=O)c(C(N)=S)cn(-c2ccccc2)c1=O,10.4
3,Cc1ccc(-c2cc(Cc3ccccc3)c(=O)[nH]n2)cc1,16.8
4,CCCCCc1c(C)nc(NCc2ccccc2)[nH]c1=O,-3.53
5,CC(=O)NCCN=C(C)c1sc2ccccc2c1O,19
6,Cc1oc(=O)c(NC(=O)c2ccc(Cl)cc2)cc1C(=O)c1ccccc1,13.8
7,Cc1ccc2[nH]c(=O)c(C(c3nnnn3C3CCCC3)N3CCCc4ccccc43)cc2c1 (centres unmarked),-2.97
8,CCNC(=S)Nc1ccccc1-c1ccccc1,8.17
9,CCC(=O)c1ccc(OCC(=O)OCC(=O)Nc2cccc(S(=O)(=O)N3CCCC3)c2)cc1,9.49
10,O=C(c1ccc(CS(=O)c2ccccc2Cl)o1)N1CCCCCC1 (centres unmarked),23.3
11,COC(=O)[C@@]12CCCCN1[C@H](c1ccc(-c3ccc(OC)cc3)cc1)[C@@H]1C(=O)N(C)C(=O)[C@@H]12.O=C(O)C(F)(F)F,8.54
12,Cc1cc(C(F)(F)F)cc(NNC(=O)NC(=O)c2ccc(Cl)cc2)n1,17.4
13,S=c1[nH]c2cc(-c3ccccc3)ccc2o1,15.5
14,Cc1ccc(C[n+]2c(-c3ccc(C)cc3)cc(-c3ccc(C)cc3)cc2-c2ccc(C)cc2)cc1.[O-][Cl+3]([O-])([O-])[O-],-61.7
15,Cc1cc(C)c(C)c(S(=O)(=O)N[C@@H](C)C(=O)OC(C)C(=O)NC(N)=O)c1C (some centres unmarked),1.09
16,Cc1cccc(NC(=O)C2CCCN(S(=O)(=O)c3cccc4nsnc34)C2)c1 (centres unmarked),-0.475
17,CCC(C)N(C(=O)CSc1nnc(C)n1C)C1CCS(=O)(=O)C1 (centres unmarked),-1.72
18,Cc1cc(C(=O)COC(=O)c2ccc(N)c([N+](=O)[O-])c2)c(C)n1Cc1ccc2c(c1)OCO2,-2.33
19,S=c1[nH]nc(CSc2nc3ccccc3s2)n1C1CCCCC1,11

row,Structure (SMILES),"hERG current change (%, negative = inhibition) at 1uM [%]"
1,CC(C)(C)CC(=O)O/N=C(\N)c1ccccn1,5.7
2,Cc1cc(OCCN2CCCC2)cc(C(C)C)c1.O=C(O)C(=O)O,7.79
3,COc1ccc(C2(C(=O)NC3CCCCC3)CCOCC2)cc1OC,12.7
4,CC(=O)Nc1cccc(NC(=O)Nc2cccc3ccccc23)c1,12.8
5,CC(C)(C)OC(=O)N1CCC(C(=O)NNC(=O)c2ccc(Cl)cc2Cl)CC1,13.1
6,Cc1cccc(NC(=O)c2sc(C)nc2C)c1,-10.3
7,O=C(CCN1CCN(Cc2ccccc2)CC1)Nc1ccccc1Cl,1.86
8,Cc1cc(C2=NNC(=Nc3ccc(S(=O)(=O)N4CCOCC4)cc3)SC2)c(C)n1CC1CCCO1 (centres unmarked),15.4
9,CCOc1ccc(NC(=O)C2CCN(C(=O)C3CC(=O)N(c4ccc(C)cc4)C3)CC2)cc1 (centres unmarked),7.43
10,CCCc1cc(=O)oc2cc(C)cc(OCC(=O)Nc3ccc(S(N)(=O)=O)cc3)c12,13.2
11,O=C(CSc1cccc[n+]1[O-])c1cc(Cl)ccc1Cl,4.18
12,CCOc1ccc(NS(=O)(=O)c2ccc3c(c2)N(C(C)=O)CCO3)cc1,17
13,CC(C)NC(=O)CCS(=O)(=O)c1cccc2nonc12,5.68
14,Cc1cccc(N(CC(=O)NC2CCCC2)C(=O)c2c(C)noc2C)c1,22.7
15,Cc1ccc(Oc2coc3cc(OC(=O)c4cccs4)ccc3c2=O)cc1,0.74
16,CCOc1ccc(-n2c(=O)cc(N3CCN(c4ccccc4)CC3)[nH]c2=O)cc1,11.9
17,O=C(Nc1nnc(-c2ccccc2)o1)c1cc(-c2cccs2)nc2ccccc12,5.77
18,O=C(NCc1ccc(C(F)(F)F)cc1)C1CC(c2ccccc2[N+](=O)[O-])=NO1 (centres unmarked),-4.52
19,FC(F)Oc1ccccc1NC(=S)Nc1cccc(Cl)c1Cl,12.3

row,Structure (SMILES),"hERG current change (%, negative = inhibition) at 1uM [%]"
1,COc1ccc(O)c(/C=N/NC(=O)c2ccc(OCc3cccc(Br)c3)cc2)c1,6.08
2,COc1ccc(C2Nc3ccccc3C(=O)N2Cc2ccco2)cc1COc1ccc(F)cc1 (centres unmarked),-3.21
3,FC(F)(F)c1ccc(NC(=S)NCc2ccccc2)cc1,13.5
4,COC(=O)[C@H]1Cc2cnoc2C[C@]1(C)C(=O)O,8.42
5,CC(=O)Nc1ccccc1C(=O)N1CCN(c2cccc(C)c2C)CC1,10.5
6,CN(C)C(=S)c1ccc(N(C)C)cc1,12.8
7,CCOc1cc(/C=N/NC(=O)CSc2nncn2C)ccc1OCc1ccccc1,3.73
8,CCOc1ccc(CCNC(=O)Cc2ccc(NC(=O)C3=C(C)OCCS3)cc2)cc1,13.2
9,O=C(Nc1cccc(-c2nn[nH]n2)c1)c1ccc(Cl)s1,15.5
10,Cc1nc(N2CCN(c3ccc(Cl)cc3)CC2)[nH]c(=O)c1C,15.4
11,Cc1ccc(NC(=O)Cn2nnc3ccccc3c2=O)cc1C,15.9
12,COc1ccc(OC)c(CN(CCCN2CCOCC2)S(=O)(=O)c2ccc(NC(C)=O)cc2)c1,9.53
13,CCCCOC(=O)CSc1nc2ccccc2o1,8.88
14,COc1ccc(S(=O)(=O)N2CC(=O)Nc3ccccc32)cc1,5.56
15,COc1ccccc1C(=O)Nc1sc2c(c1C(=O)NCc1ccco1)CCCC2,11
16,CCCn1c(SCC(=O)Nc2ccccc2OC)nnc1-c1ccco1,-18.2
17,Cc1ccc(C2C=C(c3ccccc3OC(F)F)Nc3ncnn32)cc1 (centres unmarked),6.54
18,Cc1ccc(/C=N/NC(=O)c2ccoc2C)s1,9.86
